Assay results published in article PMC9911399, “Two distinct binding modes provide the RNA-binding protein RbFox with extraordinary sequence specificity”.
Positions count from the first letter of the chain named. The list shows a part of the results.

T1: RBFOX1 RRM (Homo sapiens, UniProt Q9NWB1 109-208)
T1 sequence: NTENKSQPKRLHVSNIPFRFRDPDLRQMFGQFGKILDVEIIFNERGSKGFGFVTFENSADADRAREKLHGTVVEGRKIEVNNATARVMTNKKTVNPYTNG

B1: GUGGAUG (DNA:RNA)
RNA: GGGAGACCGGAAUUCAGAUUGUCCGUGGAUGUUAAAUCCCGUCGUAGCCACCA
DNA 1: CAATCTGAATTCCGGTCTCCC
DNA 2: TGGTGGCTACGACGGGATT
B2: AGUAUAU (DNA:RNA)
RNA: GGGAGACCGGAAUUCAGAUUGUCCAGUAUAUUUAAAUCCCGUCGUAGCCACCA
DNA 1: CAATCTGAATTCCGGTCTCCC
DNA 2: TGGTGGCTACGACGGGATT
B3: GUCAACC (DNA:RNA)
RNA: B1 RNA with G27C, G28A, U30C, G31C
DNA 1: CAATCTGAATTCCGGTCTCCC
DNA 2: TGGTGGCTACGACGGGATT
B4: AGGCAAU (DNA:RNA)
RNA: B2 RNA with U27G, A28C, U29A
DNA 1: CAATCTGAATTCCGGTCTCCC
DNA 2: TGGTGGCTACGACGGGATT
B5: AUAAACU (DNA:RNA)
RNA: B2 RNA with G26U, U27A, U29A, A30C
DNA 1: CAATCTGAATTCCGGTCTCCC
DNA 2: TGGTGGCTACGACGGGATT
B6: GUGCGGU (DNA:RNA)
RNA: B1 RNA with G28C, A29G, U30G, G31U
DNA 1: CAATCTGAATTCCGGTCTCCC
DNA 2: TGGTGGCTACGACGGGATT
B7: CGUACUG (DNA:RNA)
RNA: B2 RNA with A25C, U29C, A30U, U31G
DNA 1: CAATCTGAATTCCGGTCTCCC
DNA 2: TGGTGGCTACGACGGGATT
B8: AAGGCCA (DNA:RNA)
RNA: B1 RNA with G25A, U26A, A29C, U30C, G31A
DNA 1: CAATCTGAATTCCGGTCTCCC
DNA 2: TGGTGGCTACGACGGGATT
B9: AUCCCGC (DNA:RNA)
RNA: B2 RNA with G26U, U27C, A28C, U29C, A30G, U31C
DNA 1: CAATCTGAATTCCGGTCTCCC
DNA 2: TGGTGGCTACGACGGGATT

The binders below were run against T1, RBFOX1 RRM (assay: EMSA; HiTS-Eq, 1 nM pool, 10 min; buffer printed only for the single-RNA assays: 10 mM Tris pH 7.5, 150 mM NaCl, 3.4 mM EDTA, 0.001% NP-40, 30 C). Settings: tags: His6 N-terminal (pET28a); label: 5' 32P.
Summary of the method: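 Purified RbFox RRM, wild type or mutant, was incubated for 10 min in 50 µL with 1 nM of a 5′-radiolabelled RNA pool carrying 7 randomized nucleotides, whose flanks were annealed to DNA oligonucleotides, over a series of increasing protein concentrations. Unbound RNA was resolved on 8% native PAGE, cut out, reverse-transcribed, barcoded by PCR and sequenced on an Illumina HiSeq 2500. Relative association constants were derived from changes in read counts for each RNA species versus the control reaction and normalised to the cognate motif.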

First: B1
Second: B2
The binding signal of the first is higher: 0.0371 KA relative to UGCAUGU for the first, 0.00173 KA relative to UGCAUGU for the second.

First: B3
Second: B4
The binding signal of the first is lower: 0.00506 KA relative to UGCAUGU for the first, 0.0078 KA relative to UGCAUGU for the second.

Compared with B5, B6 is higher in binding signal: 0.000359 KA relative to UGCAUGU for the first, 0.0184 KA relative to UGCAUGU for the second.

Compared with B7, B8 is lower in binding signal: 0.0127 KA relative to UGCAUGU for the first, 0.00332 KA relative to UGCAUGU for the second.

For B9, the binding signal was 0.00173 KA relative to UGCAUGU.
